Assay results as given in the supplement of paper PMC4967469.

How the values were obtained:
Experiment in all cases: Viability of human cancer cell lines after 72 h of drug (GDSC screen)
AMG-706 = compound: CC1(C)CNc2cc(NC(=O)c3cccnc3NCc3ccncc3)ccc21 [AMG-706]; details: top dose 2 µM; top dose inferred
Protocol: (§1)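 Human cancer cell lines in 384-well plates, medium with 10% serum, drug for 72 h over a 256-fold dose range (nine 2-fold or five 4-fold steps up to the top dose). Adherent lines were fixed and stained with the nucleic acid dye Syto60, suspension lines read with resazurin; signal relative to control wells, capped at 0 and 100%. One two-parameter sigmoid per drug and line, fitted in a mixed model over all curves with the slope shared within a line.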

Cyclopamine = compound: CC1=C2C[C@H]3[C@@H](CC=C4C[C@@H](O)CC[C@@]43C)[C@@H]2CC[C@]12O[C@@H]1C[C@H](C)CN[C@H]1[C@H]2C [Cyclopamine]; details: top dose 16 µM; top dose inferred
Protocol: as §1

JNK Inhibitor VIII = compound: CCOc1nc(NC(=O)Cc2cc(OC)ccc2OC)cc(N)c1C#N [JNK Inhibitor VIII]; details: top dose 10 µM; top dose inferred
Protocol: as §1

NSC-207895 = compound: CN1CCN(c2ccc([N+](=O)[O-])c3no[n+]([O-])c23)CC1 [NSC-207895]; details: top dose 20 µM; top dose inferred
Protocol: as §1

FTI-277 = compound: COC(=O)[C@H](CCSC)NC(=O)c1ccc(NC[C@@H](N)CS)cc1-c1ccccc1 [FTI-277]; details: top dose 1.024 µM; top dose inferred
Protocol: as §1

YM155 = compound: COCC[n+]1c2c(n(Cc3cnccn3)c1C)C(=O)c1ccccc1C2=O [YM155]; details: top dose 5.12 µM
Protocol: as §1

OSI-906 = compound: C[C@]1(O)C[C@@H](c2nc(-c3ccc4ccc(-c5ccccc5)nc4c3)c3c(N)nccn32)C1 [OSI-906]; details: top dose 2.56 µM; top dose inferred
Protocol: as §1

PHA-665752 = compound: Cc1[nH]c(/C=C2\C(=O)Nc3ccc(S(=O)(=O)Cc4c(Cl)cccc4Cl)cc32)c(C)c1C(=O)N1CCC[C@@H]1CN1CCCC1 [PHA-665752]; details: top dose 2 µM
Protocol: as §1

SB-715992 = compound: Cc1ccc(C(=O)N(CCCN)[C@@H](c2nc3cc(Cl)ccc3c(=O)n2Cc2ccccc2)C(C)C)cc1 [SB-715992]; details: top dose 0.128 µM; top dose inferred
Protocol: as §1

JQ1 = compound: Cc1sc2c(c1C)C(c1ccc(Cl)cc1)=N[C@@H](CC(=O)OC(C)(C)C)c1nnc(C)n1-2 [JQ1]
Protocol: as §1

Belinostat = compound: O=C(/C=C/c1cccc(S(=O)(=O)Nc2ccccc2)c1)NO [Belinostat]; details: top dose 20 µM; top dose inferred
Protocol: as §1

CGP-60474 = compound: OCCCNc1cc(-c2ccnc(Nc3cccc(Cl)c3)n2)ccn1 [CGP-60474]; details: top dose 0.256 µM; top dose inferred
Protocol: as §1

JNJ-26854165 = compound: c1ccc2c(CCNc3ccc(Nc4ccncc4)cc3)c[nH]c2c1 [JNJ-26854165]; details: top dose 10 µM
Protocol: as §1

Docetaxel = compound: CC(=O)O[C@@]12CO[C@@H]1C[C@H](O)[C@@]1(C)C(=O)[C@H](O)C3=C(C)[C@@H](OC(=O)[C@H](O)[C@@H](NC(=O)OC(C)(C)C)c4ccccc4)C[C@@](O)([C@@H](OC(=O)c4ccccc4)[C@H]21)C3(C)C [Docetaxel]; details: top dose 0.0125 µM
Protocol: as §1

[1] = top dose 1 µM, screen: GDSC drug entry 1218, top dose inferred
[2] = top dose 2.56 µM, screen: GDSC drug entry 163

Cell Line | AUC (AMG-706) | IC50 (AMG-706) | AUC (Cyclopamine) | IC50 (Cyclopamine) | AUC (JNK Inhibitor VIII) | IC50 (JNK Inhibitor VIII) | AUC (NSC-207895) | IC50 (NSC-207895) | AUC (FTI-277) | IC50 (FTI-277) | AUC (YM155) | IC50 (YM155) | AUC (OSI-906) | IC50 (OSI-906) | AUC (PHA-665752) | IC50 (PHA-665752) | AUC (SB-715992) | IC50 (SB-715992) | AUC (JQ1; [1]) | IC50 (JQ1; [1]) | AUC (JQ1; [2]) | IC50 (JQ1; [2]) | AUC (Belinostat) | IC50 (Belinostat) | AUC (CGP-60474) | IC50 (CGP-60474) | AUC (JNJ-26854165) | IC50 (JNJ-26854165) | AUC (Docetaxel) | IC50 (Docetaxel)
ES4 (Ewing sarcoma, adherent) | 0.973 | > 2 µM | 0.96 | > 16 µM | 0.962 | > 10 µM | 0.917 | > 20 µM | 0.973 | > 1.02 µM | 0.13 | < 0.02 µM | 0.665 | 0.496 µM | 0.966 | > 2 µM | 0.915 | > 0.128 µM | 0.978 | > 1 µM | 0.84 | 2.15 µM | 0.665 | 3.87 µM | 0.613 | 0.0343 µM | 0.869 | > 10 µM | – | –
TE-441-T (rhabdomyosarcoma, adherent) | – | – | 0.982 | > 16 µM | – | – | – | – | 0.989 | > 1.02 µM | – | – | 0.861 | 2.04 µM | 0.878 | 1.89 µM | 0.856 | 0.0967 µM | – | – | 0.914 | > 2.56 µM | – | – | 0.652 | 0.0414 µM | – | – | – | –
MC116 (B-cell lymphoma, suspension) | 0.999 | > 2 µM | 0.962 | 15.1 µM | 0.999 | > 10 µM | 0.941 | 15.6 µM | 0.996 | > 1.02 µM | 0.003 | < 0.02 µM | 0.997 | > 2.56 µM | 0.999 | > 2 µM | 0.569 | 0.0117 µM | – | – | – | – | 0.162 | 0.19 µM | 0.685 | 0.0446 µM | 0.999 | > 10 µM | 0.933 | 0.00925 µM
KCL-22 (chronic myeloid leukaemia, suspension) | 0.991 | > 2 µM | 0.935 | > 16 µM | 0.991 | > 10 µM | 0.969 | > 20 µM | 0.988 | > 1.02 µM | 0.051 | < 0.02 µM | 0.991 | > 2.56 µM | 0.99 | > 2 µM | 0.582 | 0.0129 µM | 0.983 | > 1 µM | 0.711 | 0.563 µM | 0.318 | 0.428 µM | 0.728 | 0.0625 µM | – | – | 0.908 | 0.0124 µM
SNU-C2B (large intestine, adherent) | 0.977 | > 2 µM | – | – | 0.98 | > 10 µM | 0.959 | > 20 µM | 0.976 | > 1.02 µM | 0.094 | < 0.02 µM | 0.892 | > 2.56 µM | 0.978 | > 2 µM | 0.704 | 0.0366 µM | 0.978 | > 1 µM | 0.744 | 1.02 µM | 0.371 | 0.49 µM | 0.785 | 0.148 µM | 0.787 | 5.9 µM | 0.815 | 0.00983 µM

IC50 is the fitted dose that halves viability relative to control wells, and lower means more sensitive; where the fit passes the top or lowest dose, that dose stands as a limit. The AUC spans the tested range (256-fold, ending at the top dose) of the same fit: 1 means no effect, lower means more sensitive. For some of these results: A top dose marked as inferred comes from the curve model; the source does not state it. For some of these results: An entry number marks a drug with two screens in the source, which often give different values.
